{
  "source": "paper PMC4336329",
  "about": "(PLoS ONE, 2015)",
  "note": "In all, about 310,000 compounds went through this assay and about 2,200 (0.71%) showed an effect of 50% or more. Effects have a minus sign here. The list shows a part of the results.",
  "data": [
    {"target": "human ether-à-go-go-related gene (hERG) potassium channel (human, UniProt Q12809)", "sequence (Q12809 whole entry, looked up)": "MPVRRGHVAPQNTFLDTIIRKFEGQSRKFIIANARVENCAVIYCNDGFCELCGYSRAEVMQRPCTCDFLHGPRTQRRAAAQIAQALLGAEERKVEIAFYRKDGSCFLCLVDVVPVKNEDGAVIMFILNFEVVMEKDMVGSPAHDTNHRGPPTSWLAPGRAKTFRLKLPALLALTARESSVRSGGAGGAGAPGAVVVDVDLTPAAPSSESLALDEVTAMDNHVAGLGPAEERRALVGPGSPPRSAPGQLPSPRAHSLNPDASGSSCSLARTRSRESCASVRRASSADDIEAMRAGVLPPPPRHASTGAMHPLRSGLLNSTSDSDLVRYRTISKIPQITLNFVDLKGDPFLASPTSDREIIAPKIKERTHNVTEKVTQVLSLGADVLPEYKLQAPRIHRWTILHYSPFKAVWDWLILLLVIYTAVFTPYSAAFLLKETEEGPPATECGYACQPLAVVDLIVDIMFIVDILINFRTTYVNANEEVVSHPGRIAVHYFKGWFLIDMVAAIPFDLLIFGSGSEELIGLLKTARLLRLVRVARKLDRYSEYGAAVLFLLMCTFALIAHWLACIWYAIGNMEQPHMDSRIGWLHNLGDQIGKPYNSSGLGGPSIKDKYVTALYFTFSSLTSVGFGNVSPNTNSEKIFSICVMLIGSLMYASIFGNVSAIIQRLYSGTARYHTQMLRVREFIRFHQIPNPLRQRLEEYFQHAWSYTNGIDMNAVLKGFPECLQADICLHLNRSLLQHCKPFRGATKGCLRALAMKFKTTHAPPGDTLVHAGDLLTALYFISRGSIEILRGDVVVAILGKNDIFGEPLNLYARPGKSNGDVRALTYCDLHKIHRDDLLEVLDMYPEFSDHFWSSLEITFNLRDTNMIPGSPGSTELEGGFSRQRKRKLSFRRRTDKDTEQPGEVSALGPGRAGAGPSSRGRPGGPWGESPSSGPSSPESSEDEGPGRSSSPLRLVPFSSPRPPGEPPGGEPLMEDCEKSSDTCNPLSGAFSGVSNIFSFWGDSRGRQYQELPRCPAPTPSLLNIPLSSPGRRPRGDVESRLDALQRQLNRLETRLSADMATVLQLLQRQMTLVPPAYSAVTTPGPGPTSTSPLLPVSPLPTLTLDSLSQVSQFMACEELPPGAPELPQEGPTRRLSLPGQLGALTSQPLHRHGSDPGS", "test": "primary screen, population patch clamp on CHO cells stably expressing hERG", "units": {"hERG current change (%, negative = inhibition) at 1uM": "%"}, "values": [
      {"smiles": "O=C(NCc1ccc2c(c1)OCO2)C1CCN(S(=O)(=O)N2CCOCC2)CC1", "hERG current change (%, negative = inhibition) at 1uM": 6.89},
      {"smiles": "CN(C(=O)C1CCCO1)c1nnc(-c2ccncc2)s1", "note": "(stereo not drawn)", "hERG current change (%, negative = inhibition) at 1uM": 5.21},
      {"smiles": "COc1ccccc1NS(=O)(=O)c1cccc(NC(=O)c2nn(C)c(=O)c3ccccc23)c1", "hERG current change (%, negative = inhibition) at 1uM": 5.59},
      {"smiles": "CCCN(CC1CC1)c1nc(N)c2c(N)nc(OC)cc2c1C#N", "hERG current change (%, negative = inhibition) at 1uM": 0.376},
      {"smiles": "O=C(O)c1ccc(N=Nc2c(O)ccc3ncccc23)cc1", "hERG current change (%, negative = inhibition) at 1uM": 13.9},
      {"smiles": "CC1Cc2ccccc2N1C(=O)c1cnc2ccccn2c1=O", "note": "(stereo not drawn)", "hERG current change (%, negative = inhibition) at 1uM": -6.13},
      {"smiles": "COc1cccc(C2C(C#N)=C(N)N(N(C)C)C3=C2C(=O)CCC3)c1", "note": "(stereo not drawn)", "hERG current change (%, negative = inhibition) at 1uM": 7.95},
      {"smiles": "Cc1ccccc1OCC(=O)Nc1ccccc1C(=O)N1CCCCC1", "hERG current change (%, negative = inhibition) at 1uM": -4.24},
      {"smiles": "CN1CCN(CC#CC(C)(O)C2CC3C=CC2C3)CC1.Cl", "note": "(stereo not drawn)", "hERG current change (%, negative = inhibition) at 1uM": 10.8},
      {"smiles": "O=C1NC(c2ccccc2Cl)=N/C1=C/c1ccco1", "hERG current change (%, negative = inhibition) at 1uM": 1.65},
      {"smiles": "CCOc1ccc(N(CC(=O)Nc2cccc(F)c2)S(=O)(=O)c2c(C)noc2C)cc1", "hERG current change (%, negative = inhibition) at 1uM": 7.37},
      {"smiles": "COCCN(C/C=C/c1ccccc1)C/C=C/c1ccccc1", "hERG current change (%, negative = inhibition) at 1uM": -41.8},
      {"smiles": "Cc1ccc2sc(NC(=O)c3cccc(N4C(=O)CCC4=O)c3)nc2c1C", "hERG current change (%, negative = inhibition) at 1uM": 12.8},
      {"smiles": "NS(=O)(=O)c1ccc(NNC(=O)c2cccs2)cc1", "hERG current change (%, negative = inhibition) at 1uM": 11.2},
      {"smiles": "O=c1[nH]nc(CNc2ccc(Cl)cc2Cl)c2ccccc12", "hERG current change (%, negative = inhibition) at 1uM": 11.9},
      {"smiles": "Cc1cc(C)c(S(=O)(=O)Nc2ccc(C(N)=O)cc2)c(C)c1", "hERG current change (%, negative = inhibition) at 1uM": 8.12},
      {"smiles": "CN(C)c1ccc(NC(=O)c2ccncc2)c2ccccc12", "hERG current change (%, negative = inhibition) at 1uM": -3.42},
      {"smiles": "Cc1nnc(SCC2CCCO2)n1-c1ccccc1", "note": "(stereo not drawn)", "hERG current change (%, negative = inhibition) at 1uM": 13.7},
      {"smiles": "COc1ccnc(CN(C)C(=O)C2CCC(=O)N(CCN(C)C)C2)c1", "note": "(stereo not drawn)", "hERG current change (%, negative = inhibition) at 1uM": 18},
      {"smiles": "COc1ccc(Nc2nnc(SCC(=O)NC(=O)Nc3ccc4c(c3)OCCO4)s2)cc1", "hERG current change (%, negative = inhibition) at 1uM": 11.8},
      {"smiles": "COc1ccc(N2C(=O)/C(=C/c3ccc([N+](=O)[O-])cc3)N=C2C)c(OC)c1", "hERG current change (%, negative = inhibition) at 1uM": 15.1},
      {"smiles": "C[C@H]1CCC[C@@H](O)CCC/C=C/c2cc(O)cc(O)c2C(=O)O1", "hERG current change (%, negative = inhibition) at 1uM": 12.6},
      {"smiles": "COC(=O)[C@@H]1C[C@@H](c2ccccc2)[C@H](C)C1(C)C", "hERG current change (%, negative = inhibition) at 1uM": 9.31},
      {"smiles": "Cc1ccc(S(=O)(=O)N2c3cc(C)ccc3OCC2C(C)(C)C)cc1", "note": "(stereo not drawn)", "hERG current change (%, negative = inhibition) at 1uM": 10.8},
      {"smiles": "O=C(O)CCN1C(=O)c2ccc(NC(=O)CSCc3ccccc3)cc2C1=O", "hERG current change (%, negative = inhibition) at 1uM": 0.421},
      {"smiles": "CCc1ccccc1NC(=O)CN(C)C(=O)CSc1nn(-c2ccccc2)c(=S)s1", "hERG current change (%, negative = inhibition) at 1uM": 8.56},
      {"smiles": "COc1cc(C(=O)N2CCN(C(=O)CC(C)C)CC2)cc(OC)c1OC", "hERG current change (%, negative = inhibition) at 1uM": 8.32},
      {"smiles": "CCN(CC)S(=O)(=O)c1ccc2c(c1)nc(SC(C)C(=O)NCC1CCCO1)n2CC", "note": "(stereo not drawn)", "hERG current change (%, negative = inhibition) at 1uM": 0.83},
      {"smiles": "COC1=CCC2([N+](=O)[O-])CN(C)CC1([N+](=O)[O-])C2", "note": "(stereo not drawn)", "hERG current change (%, negative = inhibition) at 1uM": 5.53},
      {"smiles": "O.O=C(NC12CC3CC(CC(C3)C1)C2)c1cncc(O)c1", "hERG current change (%, negative = inhibition) at 1uM": 14.8},
      {"smiles": "C/C(=C\\C(=O)O)C12CC3CC(CC(C3)C1)C2", "hERG current change (%, negative = inhibition) at 1uM": 12.1},
      {"smiles": "COc1ccc(C(=O)Nc2cc(C)c(NC(=O)c3ccccc3OC)cn2)cc1", "hERG current change (%, negative = inhibition) at 1uM": 11},
      {"smiles": "S=C(Nc1ccc2[nH]ccc2c1)NC1CCCCC1", "hERG current change (%, negative = inhibition) at 1uM": 15.2},
      {"smiles": "Cc1cc(C(=O)OCC(=O)N2c3ccccc3CC2C)c(C)o1", "note": "(stereo not drawn)", "hERG current change (%, negative = inhibition) at 1uM": 6.25},
      {"smiles": "CCOC(=O)C1(Cc2cccc(Cl)c2)CCCN(C(=O)c2cccc(C)n2)C1", "note": "(stereo not drawn)", "hERG current change (%, negative = inhibition) at 1uM": 4.57},
      {"smiles": "O=C(NCc1cccnc1)c1ccc2c(=O)n(CCCN3CCCC3=O)c(=S)[nH]c2c1", "hERG current change (%, negative = inhibition) at 1uM": 6.64},
      {"smiles": "Cc1ccc(S(=O)(=O)N2C(=O)CCC2C(=O)Nc2ccc3c(c2)OCCO3)cc1", "note": "(stereo not drawn)", "hERG current change (%, negative = inhibition) at 1uM": 17.4},
      {"smiles": "N#Cc1ccc(-c2ccccc2)nc1SCCN1CCOCC1", "hERG current change (%, negative = inhibition) at 1uM": 2.81},
      {"smiles": "Cc1ccc(NC(=O)Cc2ccc(-n3cccc3)cc2)c(C)c1", "hERG current change (%, negative = inhibition) at 1uM": 5.51},
      {"smiles": "O=C(CN1C(=O)NC2(CCCCCC2)C1=O)c1cccs1", "hERG current change (%, negative = inhibition) at 1uM": 8.17},
      {"smiles": "CCOc1ccccc1OCCCC(=O)NC1CCCc2ccccc21", "note": "(stereo not drawn)", "hERG current change (%, negative = inhibition) at 1uM": 5.8},
      {"smiles": "CC(C)(CCO)Nc1ncnc2onc(-c3ccc(F)cc3)c12", "hERG current change (%, negative = inhibition) at 1uM": 7.88},
      {"smiles": "COc1ccc2nc(C)cc(NCc3ccc(F)cc3)c2c1", "hERG current change (%, negative = inhibition) at 1uM": -26.2},
      {"smiles": "COc1cccc(CNCCc2c[nH]c3ccccc23)c1", "hERG current change (%, negative = inhibition) at 1uM": 5},
      {"smiles": "COc1cc(C#N)ccc1OCC(=O)NCc1cccs1", "hERG current change (%, negative = inhibition) at 1uM": 14}
    ]}
  ]
}
